Test results published in the supplement of paper PMC3334620.
Over roughly 33,000 sequences, “E-score (-0.5 to 0.5)” has its median near -0.017; the highest 2% begin near 0.3. The list shows a part of the results.

target: T1, Sut1 (UniProt P53032); assay: PBM E-score (8-mer binding enrichment) (E-score (-0.5 to 0.5)); higher = stronger / more preferred TF binding; most listed sequences are background and not binding sites; details: protein concentration: 200 nM; construct: GST-full length
T1 sequence: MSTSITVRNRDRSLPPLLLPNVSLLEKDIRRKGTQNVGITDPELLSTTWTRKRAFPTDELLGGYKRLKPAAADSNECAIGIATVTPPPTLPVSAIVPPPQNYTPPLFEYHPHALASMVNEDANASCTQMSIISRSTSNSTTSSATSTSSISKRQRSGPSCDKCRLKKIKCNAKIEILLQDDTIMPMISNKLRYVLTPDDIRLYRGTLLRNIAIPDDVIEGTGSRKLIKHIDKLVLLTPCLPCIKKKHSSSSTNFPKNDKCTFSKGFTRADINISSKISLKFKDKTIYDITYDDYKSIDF
Summary of the method: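 Yeast transcription factors carrying a GST tag, as full-length proteins or DNA-binding domains, were produced by PURExpress in vitro transcription/translation. About 100-200 nM protein was applied to universal all-10-mer Agilent arrays, double-stranded by primer extension on fresh or once-stripped slides. Bound protein was detected with fluorescent anti-GST, and scans were normalised with masliner. The Universal PBM Analysis Suite gave each ungapped eight-base word, pooled with its reverse complement, an E-score, a modified Wilcoxon-Mann-Whitney statistic.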

Point of comparison: CACCGGGA, “PBM E-score” value -0.0737. Against it:
- AGTATACT — higher, 0.00364
- CCGCCCTA — higher, -0.0727
- CATTTAGC — higher, -0.032
- GTAGAAGA — higher, 0.0368
- AATACGAA — higher, 0.169
- CACAACCC — lower, -0.0775
- AACAGCTA — higher, 0.0258
- GAAGAGAC — higher, 0.0374
- CCATATAA — higher, 0.0827
- AGCGTGCG — higher, -0.0386
- TAGGGACA — higher, 0.0209
- AAGAAGGG — lower, -0.156
- GGAAGAAA — higher, 0.122
- GCCAGGAC — lower, -0.227
- AAAATATA — higher, 0.267
- AGTTTGGA — higher, 0.0671
- ATGCAAGG — lower, -0.129
- CCCTTTGA — lower, -0.302
- GCAGCCCA — lower, -0.204
- AAACCTAG — higher, -0.0283
- GCCGCACA — lower, -0.218
- ATATAACC — higher, 0.0866
- CTATAAAG — higher, 0.235
- GATTTGCC — higher, 0.0865
- AATCTCCC — lower, -0.268
- AAGTTCAA — higher, 0.0979
- AATCAGGT — higher, 0.207
- TCAACTCA — higher, -0.0289
- GAGCCAAA — higher, -0.0398
- AGCTACCA — higher, -0.0375
- CAATTAAG — higher, 0.233
- AAACAGGT — higher, -0.0573
- AGCTGTTC — lower, -0.187
- CTGTGGCC — lower, -0.237
- GACCGTGA — higher, -0.0674
- CACCCATC — lower, -0.101
- AAAGCAAA — higher, 0.256
- ATTGTGCA — higher, 0.124
- CTCTCAAG — higher, 0.0127
- GAAGTCAC — lower, -0.241
- AGCTCTTC — higher, 0.0317
- CTCCCCCC — lower, -0.31
- TATTTACA — higher, 0.143
- ATCGACTG — higher, 0.0191
- CCTTGTAG — lower, -0.179
- ATTCGGAG — higher, 0.432
- GGGCCCGA — lower, -0.149
- CATAATGA — higher, 0.237
- CGATGGTC — lower, -0.158
- CAGCAACA — higher, 0.193
- CCGGGCAC — higher, 0.14
- AGGCACCC — lower, -0.343
- ATCAATCG — higher, 0.108
- ACATATTG — higher, 0.0485
- AAGGCAGC — lower, -0.0891
- CCAGAAAG — higher, 0.165
- CACCCGGG — lower, -0.197
- CAAGAGTG — higher, -0.0639
- AGGTGATA — lower, -0.0925
- AGCTTAGA — higher, 0.0671
- CGTCAACA — lower, -0.158
- AGCTTACT — higher, 0.00715
- TACGAAGA — higher, 0.0906
- GTGCAAAC — higher, 0.049
- GGAAGGCC — higher, 0.0275
- CATATGCA — lower, -0.0814
- CCTGCTTC — lower, -0.244
- GTGTAGCA — lower, -0.35
- ACCCAAAG — lower, -0.147
- CCTGTCCG — lower, -0.106
- CGGGAGCC — lower, -0.17
- ATTCGTTG — higher, -0.0108
- GATGTAAC — higher, 0.0929
- GATGGGAC — lower, -0.225
- ATGGTCTG — lower, -0.0811
- CATTCGAA — higher, 0.0869
- GCTTAATA — higher, 0.0101
- ATGCCGTC — lower, -0.23
- AAACGGGC — lower, -0.109
- TCACTCAA — higher, 0.0178
- AAGTATGC — lower, -0.0954
- ATATTTCG — higher, 0.137
- GCTTACCC — lower, -0.193
- AGCTAAGC — lower, -0.255
- AACGTAGA — higher, 0.00436
- CTCTTGCC — lower, -0.208
- ATCCGCAA — lower, -0.0823
- AAAGCTCC — higher, 0.0815
- AACACTCC — higher, 0.256
- CTCCGACC — higher, 0.391
- AACGGGTG — higher, -0.0363
- CCCCGGCG — higher, -0.00882
- ACCCGCTG — lower, -0.271
